These are yes or no findings as the source states them, for the method shown. Binding seen in cells or lysates may run through a third protein. Some binding calls cover weakened binding; strength is not graded here.
T1: starch synthase IIa (rice, Oryza sativa japonica cv. Nipponbare (endogenous in developing seeds)) (UniProt Q0DDE3)
T1 sequence: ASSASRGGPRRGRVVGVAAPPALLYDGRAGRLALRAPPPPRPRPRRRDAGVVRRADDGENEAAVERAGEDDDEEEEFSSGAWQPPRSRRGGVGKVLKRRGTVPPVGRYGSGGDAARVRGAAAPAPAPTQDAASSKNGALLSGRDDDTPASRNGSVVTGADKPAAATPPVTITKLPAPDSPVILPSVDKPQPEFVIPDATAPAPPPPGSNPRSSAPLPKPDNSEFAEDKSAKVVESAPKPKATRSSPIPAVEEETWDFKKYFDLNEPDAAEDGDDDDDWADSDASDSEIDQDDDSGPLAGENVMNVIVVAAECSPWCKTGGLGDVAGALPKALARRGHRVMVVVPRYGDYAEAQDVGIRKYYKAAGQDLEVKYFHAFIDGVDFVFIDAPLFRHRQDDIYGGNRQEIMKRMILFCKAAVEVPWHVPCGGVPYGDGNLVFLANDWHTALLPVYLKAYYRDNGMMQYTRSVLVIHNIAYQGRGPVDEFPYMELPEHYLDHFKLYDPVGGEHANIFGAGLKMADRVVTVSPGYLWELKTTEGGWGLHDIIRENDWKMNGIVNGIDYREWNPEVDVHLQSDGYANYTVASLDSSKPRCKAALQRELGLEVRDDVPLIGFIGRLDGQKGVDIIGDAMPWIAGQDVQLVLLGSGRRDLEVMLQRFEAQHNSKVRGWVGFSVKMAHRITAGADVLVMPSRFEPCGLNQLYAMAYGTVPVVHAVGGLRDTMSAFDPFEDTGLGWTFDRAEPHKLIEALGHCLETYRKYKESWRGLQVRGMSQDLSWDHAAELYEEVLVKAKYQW


How the values were obtained:
[1] = target: T1, starch synthase IIa (rice, Oryza sativa japonica cv. Nipponbare (endogenous in developing seeds)); assay: condition: only in extract of ss1^L/ss2a^L/SS3a seeds; co-IP; as a1, soluble proteins of developing seeds of ss1^L/ss2a^L/SS3a (SSI reduced); control with pre-immune serum
[2] = target: T1, starch synthase IIa (rice, Oryza sativa japonica cv. Nipponbare (endogenous in developing seeds)); assay: condition: only in extract of SS1/ss2a^L/ss3a seeds; co-IP; as a1, soluble proteins of developing seeds of SS1/ss2a^L/ss3a (SSIIIa absent); control with pre-immune serum
[3] = target: T1, starch synthase IIa (rice, Oryza sativa japonica cv. Nipponbare (endogenous in developing seeds)); assay: condition: only in extract of ss1^L/ss2a^L/ss3a seeds; co-IP; as a1, soluble proteins of developing seeds of ss1^L/ss2a^L/ss3a (SSI reduced, SSIIIa absent); control with pre-immune serum
[4] = target: T1, starch synthase IIa (rice, Oryza sativa japonica cv. Nipponbare (endogenous in developing seeds)); assay: co-IP; immuno-precipitation with isozyme specific antibodies from soluble proteins of developing rice seeds, immuno-blotting; wild-type Nipponbare (SS1/ss2a^L/SS3a); the BEI-BEIIb, BEI-PUL and Pho1-BEIIa pairs also in the three mutant lines; control with pre-immune serum
[5] = target: starch synthase IIIa (rice, Oryza sativa japonica cv. Nipponbare (endogenous in developing seeds)); assay: condition: only in extract of ss1^L/ss2a^L/SS3a seeds; co-IP; as a1, soluble proteins of developing seeds of ss1^L/ss2a^L/SS3a (SSI reduced); control with pre-immune serum
[6] = target: starch synthase IIIa (rice, Oryza sativa japonica cv. Nipponbare (endogenous in developing seeds)); assay: co-IP; immuno-precipitation with isozyme specific antibodies from soluble proteins of developing rice seeds, immuno-blotting; wild-type Nipponbare (SS1/ss2a^L/SS3a); the BEI-BEIIb, BEI-PUL and Pho1-BEIIa pairs also in the three mutant lines; control with pre-immune serum

binding [1]	binding [2]	binding [3]	binding [4]	binding [5]	binding [6]	Binder
no binding	no binding	no binding	binds	–	–	starch synthase I (enzyme, UniProt Q0DEC8 114-641) SEQESEIMDVKEQAQAKVTRSVVFVTGEASPYAKSGGLGDVCGSLPIALALRGHRVMVVMPRYMNGALNKNFANAFYTEKHIKIPCFGGEHEVTFFHEYRDSVDWVFVDHPSYHRPGNLYGDNFGAFGDNQFRYTLLCYAACEAPLILELGGYIYGQKCMFVVNDWHASLVPVLLAAKYRPYGVYRDARSVLVIHNLAHQGVEPASTYPDLGLPPEWYGALEWVFPEWARRHALDKGEAVNFLKGAVVTADRIVTVSQGYSWEVTTAEGGQGLNELLSSRKSVLNGIVNGIDINDWNPSTDKFLPYHYSVDDLSGKAKCKAELQKELGLPIRPDVPLIGFIGRLDYQKGIDLIKLAIPDLMRDNIQFVMLGSGDPGFEGWMRSTESGYRDKFRGWVGFSVPVSHRITAGCDILLMPSRFEPCGLNQLYAMQYGTVPVVHGTGGLRDTVENFNPFAEKGEQGTGWAFSPLTIEKMLWALRMAISTYREHKSSWEGLMKRGMSSDFTWDHAASQYEQIFEWAFMDQPYVM
–	–	–	–	no binding	binds	starch synthase IIa (enzyme, UniProt Q0DDE3 17-810) ASSASRGGPRRGRVVGVAAPPALLYDGRAGRLALRAPPPPRPRPRRRDAGVVRRADDGENEAAVERAGEDDDEEEEFSSGAWQPPRSRRGGVGKVLKRRGTVPPVGRYGSGGDAARVRGAAAPAPAPTQDAASSKNGALLSGRDDDTPASRNGSVVTGADKPAAATPPVTITKLPAPDSPVILPSVDKPQPEFVIPDATAPAPPPPGSNPRSSAPLPKPDNSEFAEDKSAKVVESAPKPKATRSSPIPAVEEETWDFKKYFDLNEPDAAEDGDDDDDWADSDASDSEIDQDDDSGPLAGENVMNVIVVAAECSPWCKTGGLGDVAGALPKALARRGHRVMVVVPRYGDYAEAQDVGIRKYYKAAGQDLEVKYFHAFIDGVDFVFIDAPLFRHRQDDIYGGNRQEIMKRMILFCKAAVEVPWHVPCGGVPYGDGNLVFLANDWHTALLPVYLKAYYRDNGMMQYTRSVLVIHNIAYQGRGPVDEFPYMELPEHYLDHFKLYDPVGGEHANIFGAGLKMADRVVTVSPGYLWELKTTEGGWGLHDIIRENDWKMNGIVNGIDYREWNPEVDVHLQSDGYANYTVASLDSSKPRCKAALQRELGLEVRDDVPLIGFIGRLDGQKGVDIIGDAMPWIAGQDVQLVLLGSGRRDLEVMLQRFEAQHNSKVRGWVGFSVKMAHRITAGADVLVMPSRFEPCGLNQLYAMAYGTVPVVHAVGGLRDTMSAFDPFEDTGLGWTFDRAEPHKLIEALGHCLETYRKYKESWRGLQVRGMSQDLSWDHAAELYEEVLVKAKYQW

Reference: publication PMC5894220
